Test results from the supplement of paper PMC12217912.
The list shows a part of the results. Sequences were assembled here from the parent chain. Values near 0.05 are background.

B1: TEV protease; numbered along this chain (parent)
chain: MGESLFKGPRDYNPISSSICHLTNESDGHTTSLYGIGFGPFIITNKHLFRRNNGTLVVQSLHGVFKVKDTTTLQQHLVDGRDMIIIRMPKDFPPFPQKLKFREPQREERICLVTTNFQTKSMSSMVSDTSCTFPSGDGIFWKHWIQTKDGQCGSPLVSTRDGFIVGIHSASNFTNTNNYFTSVPKNFMELLTNQEAQQWVSGWRLNADSVLWGGHKVFMVKPEEPFQPVKEATQL

Variants of: B1
Test: raw area under fraction-flipped curve 0-4 h after induction (AUC4h, not background-subtracted), DNA-recorder readout of cleavage of the substrate (dimensionless); higher = more cleavage of the substrate by the protease variant
Conditions: temperature: 34 °C; time window: 0-4 h after rhamnose induction
Protocol: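 In vivo DNA recorder in E. coli TOP10(DE3) ΔrhaA at 34 °C. Each TEVp single-site mutant (parent TEVp 0) is paired with a single-site variant of the 7-mer TEVs (canonical ENLYFQ|S). The substrate sits between flexible linkers in a Bxb1-sfGFP-TEVs-SsrA fusion, so cleavage stabilises Bxb1 and speeds flipping of a recombination array, read by NGS. The value is the raw area under the fraction-flipped curve over 0-4 h after rhamnose induction (AUC4h), with ≥20 reads per time point. It is not background-subtracted; inactive controls average about 0.047.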
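Further: Bxb1 expression induced with 0.2% (w/v) L-rhamnose at OD600 near 0.5, cultures sampled hourly, flipped fraction per protease–substrate barcode pair counted by paired-end Illumina sequencing.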

Variant	area with substrate CNLYFQS	area with substrate FNLYFQS	area with substrate HNLYFQS	area with substrate INLYFQS	area with substrate KNLYFQS	area with substrate LNLYFQS	area with substrate MNLYFQS	area with substrate SNLYFQS	area with substrate TNLYFQS	area with substrate WNLYFQS	area with substrate YNLYFQS	area with substrate NNLYFQS	area with substrate PNLYFQS	area with substrate QNLYFQS	area with substrate RNLYFQS	area with substrate VNLYFQS	area with substrate GNLYFQS	area with substrate DNLYFQS
L73G	0.0556	0.0327	0.0457	0.0474	0.0415	0.0638	0.051	0.0411	0.054	0.0855	0.0429	–	–	–	–	–	–	–
G63M	0.113	–	0.0567	0.0536	–	0.0641	–	0.0563	0.0659	0.0601	–	0.0676	0.112	0.053	0.0524	0.0597	–	–
G63N	0.058	0.0529	–	–	–	0.0758	–	–	–	0.0509	0.0566	0.0597	0.0585	–	–	–	0.0643	–
G63F	0.0502	0.0482	0.0407	–	–	0.0596	0.0511	0.0661	0.0689	0.0484	0.0636	0.0554	0.0579	–	0.0568	–	0.064	–
G63I	0.0607	0.0782	0.0619	0.0556	–	0.0487	0.0922	0.0454	0.0645	0.0536	0.0515	0.0617	0.0608	–	–	–	–	–
H47A	0.0519	–	0.0672	0.0661	–	0.0719	0.0806	0.0596	–	0.0522	–	0.0564	0.0325	–	–	–	0.0396	–
H47R	0.0709	0.0742	0.0611	–	–	–	0.055	0.0592	0.0509	0.0503	0.0662	–	0.0612	–	0.0371	–	–	–
Q59V	0.0348	0.0607	0.0333	–	–	0.0783	–	–	0.062	0.0575	0.0793	0.0687	–	–	–	–	0.0597	–
L61A	0.0667	0.061	0.0567	–	–	–	0.0643	0.0696	0.0723	–	0.0652	–	0.068	–	0.0485	–	–	–
L61N	0.0707	–	–	0.0692	–	–	0.0746	0.0702	–	0.0578	–	0.0652	0.0633	–	–	–	–	0.0758
F49H	0.0589	0.0566	0.0436	0.0509	0.0506	–	0.0404	0.0451	0.0603	0.0645	0.0469	0.0507	0.0494	–	–	–	0.0563	–
T55E	0.0741	–	0.0656	0.0623	0.0675	0.057	–	0.0656	0.0604	0.0543	0.0569	–	0.0483	0.0701	–	0.0632	–	–
T55I	0.0573	–	0.064	0.056	–	0.0771	0.0684	0.0679	0.0663	–	0.0504	0.0676	0.0752	–	–	–	–	–
S60V	0.0666	0.0651	0.0522	0.0709	0.0771	0.0601	0.0638	0.0595	0.063	0.0573	0.0555	–	0.0629	–	0.0571	0.0526	0.0733	–
S60F	0.0709	0.0671	–	0.0462	0.0609	0.0739	0.0663	0.0762	0.0605	0.0568	0.0679	0.0764	0.0811	0.0719	–	–	–	–
N52F	0.066	0.0577	0.051	–	0.0634	0.0608	0.0277	0.0582	0.0735	0.0677	0.0582	0.0552	0.0585	0.0462	–	0.0585	–	–
N52S	0.0651	–	0.0376	0.0603	0.0603	0.0627	0.0782	0.0578	0.0696	0.0613	0.0521	–	0.0599	0.0603	–	0.0485	–	–
N52M	0.0468	–	–	0.0643	–	–	0.0654	–	0.067	0.0608	0.0544	–	0.0607	–	–	–	–	–
N52T	0.0571	–	0.0642	0.0577	–	0.0596	–	–	0.0538	0.0976	0.0573	–	–	–	0.0586	0.0511	0.0825	–
N52Y	0.0559	–	0.0503	0.0582	0.0586	0.0565	0.069	0.0656	0.0598	0.062	0.0653	–	0.0639	–	0.07	0.0639	–	–
N52I	0.0656	–	0.0496	–	–	0.0608	–	0.0384	–	0.0631	–	–	–	–	–	–	–	0.0733
V67R	0.0572	0.048	0.0536	0.0489	–	0.0447	0.0462	0.0443	0.0501	0.0492	0.0345	–	0.0541	–	–	–	0.0501	–
D69H	0.0868	0.0575	0.0569	0.0594	0.0523	–	–	–	0.0624	0.0577	–	–	0.0598	0.0481	–	0.0495	0.0652	–
D69Q	0.0608	0.063	0.0684	0.0607	0.0446	0.0666	0.0548	0.0637	0.0629	0.0463	0.0703	–	0.0623	0.0623	–	–	0.0838	–
K46E	0.0503	0.0715	0.0674	0.0606	0.0662	0.0621	0.049	0.0535	0.0547	0.052	0.0487	0.0614	0.0568	–	–	0.0679	0.0455	–
K46F	0.0593	–	0.0626	–	0.0673	0.0708	0.055	0.101	0.0466	0.0538	0.0554	–	0.0474	–	–	–	–	–
K46R	0.0572	–	0.0579	0.0717	0.0631	0.0702	0.0755	0.0772	0.0828	0.0565	0.0482	0.0468	0.0606	–	–	–	0.0719	–
K68F	0.0811	–	–	–	0.0073	0.0821	–	0.0502	0.0597	0.0652	–	–	–	–	0.0597	–	0.0958	0.0701
F65E	0.0578	0.0675	0.062	0.0565	0.0723	–	0.0529	0.0593	0.0914	0.0587	–	0.0535	0.062	–	–	–	0.0652	–
F65R	0.0658	–	0.0684	0.0811	0.0677	0.0588	0.0726	0.0585	0.0639	0.0521	0.048	0.0621	–	–	–	0.0622	0.0641	–
